In US10766928B2, “Targeted conformationally-constrained kinked endosomal disrupting peptides” (priority 2012, dated 2020):
Part of at least one peptide drawing is inferred or uncertain, most often the ends. Non-standard residues stand in square brackets, D forms with d. Residues, ends and D or L forms follow the SMILES beside them. *: point of attachment. Pentanoyl(5-NH-cholesteryl) = CC(C)CCC[C@@H](C)[C@H]1CC[C@H]2[C@@H]3CC=C4C[C@@H](NCCCCC(=O)*)CC[C@]4(C)[C@H]3CC[C@]12C; PEG3 = NCCOCCOCCOCCC(=O)O; Aib = CC(C)(N)C(=O)O; Ahx = NCCCCCC(=O)O; βAla = NCCC(=O)O

Test system: endosomes of Jurkat lymphocytes
Experiment: Endosome disruption in Jurkat lymphocytes: release of carboxyfluorescein from disulfide probe Compound 2, flow cytometry
Details: for Endosome disruption activity (in words): Jurkat endosome disruption assay; for Efficacy (% of max. 1): Table 1, % change in cellular fluorescence relative to maximal response of Compound 1 (100%), Jurkat, 14 hours
Method: The effects of the compounds of the invention on human Juikat leukemia cells were evaluated using flow cytometry-based assays of potency, efficacy, and toxicity. […] Analysis of flow cytometry data by non-linear regression was used to determine IC50 values for potency with the efficacy expressed as a percentage. […] Dose-dependent effects on cellular viability after 48 h at 37° C. in culture were also measured by flow cytometry.
The # represents the compound number in accordance with Tables A, B, and C. Concentrations of compound stock solutions were determined by absorbance measurements at 280 nm. Efficacy was determined as % change in cellular fluorescence relative to the maximal response of Compound 1, defined as 100%. Potencies and efficacies in Jurkat lymphocytes were measured by flow cytometry after treatment of cells with the compounds listed and the fluorescent probe Compound 2 (2.5 μM) for 14 hours. Toxicity to this cell line was determined by flow cytometry analysis of light scattering and counterstaining with PI after treatment for 48 h at 37° C. in culture. […] N.D., not determined.
Cells were treated with fluorescent molecular probe Compound 2 (2.5 μM) and endosome disruptors for 14 hours at 37° C. Enhanced cellular fluorescence resulting from release of the pH-sensitive fluorophore Compound 3 into the cytoplasm was quantified by flow cytometry.
Natural amino acids are represented by single letter codes. Codes for non-standard elements are as follows: Ch1: (3β-Cholest-5-en-3-yl-ammonio)pentanoyl; Ch2: (Cholester-3-yl)oxy-βAla-βAla; X: ε-Ahx; U: Aib; PB: Pacific Blue fluorophore. O: 3-(2-(2-(2-aminoethoxy)ethoxy)ethoxy)propanyl.

## CC(C)CCC[C@@H](C)[C@H]1CC[C@H]2[C@@H]3CC=C4C[C@@H](NCCCCC(=O)NCCC(=O)N[C@@H](CCC(=O)O)C(=O)N[C@@H](CCC(=O)O)C(=O)NCCCCCC(=O)NC(C)(C)C(=O)NC(C)(C)C(=O)NC(C)(C)C(=O)N[C@@H](Cc5c[nH]c6ccccc56)C(=O)N[C@@H](Cc5c[nH]c6ccccc56)C(=O)N[C@@H](C)C(=O)N[C@@H](Cc5ccc(O)cc5)C(=O)N[C@@H](Cc5c[nH]c6ccccc56)C(=O)N[C@@H](C)C(=O)N5CCC[C@H]5C(=O)N[C@H](C(=O)N[C@@H](C)C(N)=O)C(C)C)CC[C@]4(C)[C@H]3CC[C@]12C [Compound 16, R = BEEXUUUWWAYWAPVA-CONH2] ({Pentanoyl(5-NH-cholesteryl)-βAla}-EE[Ahx][Aib][Aib][Aib]WWAYWAPVA-NH2)
  Endosome disruption activity (in words): retain substantial activity
  Efficacy (% of max. 1): 55%

## CC(C)CCC[C@@H](C)[C@H]1CC[C@H]2[C@@H]3CC=C4C[C@@H](NCCCCC(=O)NCCC(=O)N[C@@H](CCC(=O)O)C(=O)N[C@@H](CCC(=O)O)C(=O)NCCCCCC(=O)NC(C)(C)C(=O)NC(C)(C)C(=O)NC(C)(C)C(=O)N[C@@H](Cc5c[nH]c6ccccc56)C(=O)N[C@@H](Cc5c[nH]c6ccccc56)C(=O)N[C@@H](C)C(=O)N[C@@H](Cc5ccc(O)cc5)C(=O)N[C@@H](Cc5c[nH]c6ccccc56)C(=O)N5CCC[C@H]5C(=O)N[C@@H](C)C(=O)N[C@H](C(=O)N[C@@H](C)C(N)=O)C(C)C)CC[C@]4(C)[C@H]3CC[C@]12C [Compound 17, R = BEEXUUUWWAYWPAVA-CONH2] ({Pentanoyl(5-NH-cholesteryl)-βAla}-EE[Ahx][Aib][Aib][Aib]WWAYWPAVA-NH2)
  Endosome disruption activity (in words): retain substantial activity
  Efficacy (% of max. 1): 55%

## CC(C)CCC[C@@H](C)[C@H]1CC[C@H]2[C@@H]3CC=C4C[C@@H](NCCCCC(=O)NCCC(=O)N[C@@H](CCC(=O)O)C(=O)N[C@@H](CCC(=O)O)C(=O)NCCCCCC(=O)NC(C)(C)C(=O)NC(C)(C)C(=O)NC(C)(C)C(=O)N[C@@H](Cc5c[nH]c6ccccc56)C(=O)N[C@@H](Cc5c[nH]c6ccccc56)C(=O)N[C@@H](C)C(=O)N[C@@H](Cc5ccc(O)cc5)C(=O)N[C@@H](Cc5c[nH]c6ccccc56)C(=O)N5CCC[C@H]5C(=O)N5CCC[C@H]5C(=O)N[C@@H](C)C(=O)N[C@@H](C)C(N)=O)CC[C@]4(C)[C@H]3CC[C@]12C [Compound 18, R = BEEXUUUWWAYWPPAA-CONH2] ({Pentanoyl(5-NH-cholesteryl)-βAla}-EE[Ahx][Aib][Aib][Aib]WWAYWPPAA-NH2)
  Efficacy (% of max. 1): <50%

## CC(C)CCC[C@@H](C)[C@H]1CC[C@H]2[C@@H]3CC=C4C[C@@H](NCCCCC(=O)NCCC(=O)N[C@@H](CCC(=O)O)C(=O)N[C@@H](CCC(=O)O)C(=O)NCCCCCC(=O)NC(C)(C)C(=O)NC(C)(C)C(=O)NC(C)(C)C(=O)N[C@@H](Cc5c[nH]c6ccccc56)C(=O)N[C@@H](Cc5c[nH]c6ccccc56)C(=O)N[C@@H](C)C(=O)N[C@@H](Cc5c[nH]c6ccccc56)C(=O)N[C@@H](Cc5c[nH]c6ccccc56)C(=O)N5CCC[C@H]5C(=O)N5CCC[C@H]5C(=O)N[C@H](C(=O)N[C@@H](C)C(N)=O)C(C)C)CC[C@]4(C)[C@H]3CC[C@]12C [Compound 19, R = BEEXUUUWWAWWPPVA-CONH2] ({Pentanoyl(5-NH-cholesteryl)-βAla}-EE[Ahx][Aib][Aib][Aib]WWAWWPPVA-NH2)
  Efficacy (% of max. 1): 88%

## CC(C)CCC[C@@H](C)[C@H]1CC[C@H]2[C@@H]3CC=C4C[C@@H](NCCCCC(=O)NCCC(=O)N[C@@H](CCC(=O)O)C(=O)N[C@@H](CCC(=O)O)C(=O)NCCCCCC(=O)NC(C)(C)C(=O)NC(C)(C)C(=O)NC(C)(C)C(=O)NC(C)(C)C(=O)N[C@@H](Cc5c[nH]c6ccccc56)C(=O)N[C@@H](Cc5c[nH]c6ccccc56)C(=O)N[C@@H](C)C(=O)N[C@@H](Cc5ccc(O)cc5)C(=O)N[C@@H](Cc5c[nH]c6ccccc56)C(=O)N5CCC[C@H]5C(=O)N5CCC[C@H]5C(=O)N[C@H](C(=O)N[C@@H](C)C(N)=O)C(C)C)CC[C@]4(C)[C@H]3CC[C@]12C [Compound 20, R = BEEXUUUUWWAYWPPVA-CONH2] ({Pentanoyl(5-NH-cholesteryl)-βAla}-EE[Ahx][Aib][Aib][Aib][Aib]WWAYWPPVA-NH2)
  Efficacy (% of max. 1): 109%
UUU extended to UUUU
  Enhancement of potency relative to Compound 19: tenfold

## CC(C)CCC[C@@H](C)[C@H]1CC[C@H]2[C@@H]3CC=C4C[C@@H](NCCCCC(=O)NCCC(=O)N[C@@H](CCC(=O)O)C(=O)N[C@@H](CCC(=O)O)C(=O)NCCCCCC(=O)NCCCCCC(=O)NC(C)(C)C(=O)NC(C)(C)C(=O)NC(C)(C)C(=O)NC(C)(C)C(=O)N[C@@H](Cc5c[nH]c6ccccc56)C(=O)N[C@@H](Cc5c[nH]c6ccccc56)C(=O)N[C@@H](C)C(=O)N[C@@H](Cc5ccc(O)cc5)C(=O)N[C@@H](Cc5c[nH]c6ccccc56)C(=O)N5CCC[C@H]5C(=O)N5CCC[C@H]5C(=O)N[C@H](C(=O)N[C@@H](C)C(N)=O)C(C)C)CC[C@]4(C)[C@H]3CC[C@]12C [Compound 21, R = BEEXXUUUUWWAYWPPVA-CONH2] ({Pentanoyl(5-NH-cholesteryl)-βAla}-EE[Ahx][Ahx][Aib][Aib][Aib][Aib]WWAYWPPVA-NH2)
  Efficacy (% of max. 1): 112%

## CC(C)CCC[C@@H](C)[C@H]1CC[C@H]2[C@@H]3CC=C4C[C@@H](NCCCCC(=O)NCCC(=O)N[C@@H](CCC(=O)O)C(=O)N[C@@H](CCC(=O)O)C(=O)NCCCCCC(=O)NCCCCCC(=O)NC(C)(C)C(=O)NC(C)(C)C(=O)NC(C)(C)C(=O)NC(C)(C)C(=O)N[C@@H](Cc5ccccc5)C(=O)N[C@@H](Cc5ccccc5)C(=O)N[C@@H](C)C(=O)N[C@@H](Cc5ccccc5)C(=O)N[C@@H](Cc5ccccc5)C(=O)N5CCC[C@H]5C(=O)N5CCC[C@H]5C(=O)N[C@H](C(=O)N[C@@H](C)C(N)=O)C(C)C)CC[C@]4(C)[C@H]3CC[C@]12C [Compound 22, R = BEEXXUUUUFFAFFPPVA-CONH2] ({Pentanoyl(5-NH-cholesteryl)-βAla}-EE[Ahx][Ahx][Aib][Aib][Aib][Aib]FFAFFPPVA-NH2)
  Efficacy (% of max. 1): <50%

## CC(C)CCC[C@@H](C)[C@H]1CC[C@H]2[C@@H]3CC=C4C[C@@H](NCCCCC(=O)NCCC(=O)N[C@@H](CCC(=O)O)C(=O)N[C@@H](CCC(=O)O)C(=O)NCCCCCC(=O)NCCCCCC(=O)NC(C)(C)C(=O)NC(C)(C)C(=O)NC(C)(C)C(=O)NC(C)(C)C(=O)N[C@@H](Cc5ccc(O)cc5)C(=O)N[C@@H](Cc5ccc(O)cc5)C(=O)N[C@@H](C)C(=O)N[C@@H](Cc5ccc(O)cc5)C(=O)N[C@@H](Cc5ccc(O)cc5)C(=O)N5CCC[C@H]5C(=O)N5CCC[C@H]5C(=O)N[C@H](C(=O)N[C@@H](C)C(N)=O)C(C)C)CC[C@]4(C)[C@H]3CC[C@]12C [Compound 23, R = BEEXXUUUUYYAYYPPVA-CONH2] ({Pentanoyl(5-NH-cholesteryl)-βAla}-EE[Ahx][Ahx][Aib][Aib][Aib][Aib]YYAYYPPVA-NH2)
  Efficacy (% of max. 1): 74%

## CC(C)CCC[C@@H](C)[C@H]1CC[C@H]2[C@@H]3CC=C4C[C@@H](NCCCCC(=O)NCCC(=O)N[C@@H](CCC(=O)O)C(=O)N[C@@H](CCC(=O)O)C(=O)NCCCCCC(=O)NCCCCCC(=O)NC(C)(C)C(=O)NC(C)(C)C(=O)NC(C)(C)C(=O)NC(C)(C)C(=O)N[C@@H](Cc5ccc(O)cc5)C(=O)N[C@@H](Cc5ccc(O)cc5)C(=O)N[C@@H](Cc5ccc(O)cc5)C(=O)N[C@@H](Cc5ccc(O)cc5)C(=O)N[C@@H](Cc5ccc(O)cc5)C(=O)N5CCC[C@H]5C(=O)N5CCC[C@H]5C(=O)N[C@H](C(=O)N[C@@H](C)C(N)=O)C(C)C)CC[C@]4(C)[C@H]3CC[C@]12C [Compound 24, R = BEEXXUUUUYYYYYPPVA-CONH2] ({Pentanoyl(5-NH-cholesteryl)-βAla}-EE[Ahx][Ahx][Aib][Aib][Aib][Aib]YYYYYPPVA-NH2)
  Efficacy (% of max. 1): 74%

## CC(C)CCC[C@@H](C)[C@H]1CC[C@H]2[C@@H]3CC=C4C[C@@H](NCCCCC(=O)NCCC(=O)N[C@@H](CCC(=O)O)C(=O)N[C@@H](CCC(=O)O)C(=O)NCCCCCC(=O)NCCCCCC(=O)NC(C)(C)C(=O)NC(C)(C)C(=O)NC(C)(C)C(=O)NC(C)(C)C(=O)N[C@@H](Cc5ccc(O)cc5)C(=O)N[C@@H](Cc5ccc(O)cc5)C(=O)N[C@@H](C)C(=O)N[C@@H](Cc5ccc(O)cc5)C(=O)N[C@@H](Cc5ccc(O)cc5)C(=O)N5CCC[C@H]5C(=O)N5CCC[C@H]5C(=O)N[C@H](C(=O)N[C@H](C(N)=O)C(C)C)C(C)C)CC[C@]4(C)[C@H]3CC[C@]12C [Compound 25, R = BEEXXUUUUYYAYYPPVV-CONH2] ({Pentanoyl(5-NH-cholesteryl)-βAla}-EE[Ahx][Ahx][Aib][Aib][Aib][Aib]YYAYYPPVV-NH2)
  Efficacy (% of max. 1): 109%

## CC(C)CCC[C@@H](C)[C@H]1CC[C@H]2[C@@H]3CC=C4C[C@@H](NCCCCC(=O)NCCC(=O)N[C@@H](CCC(=O)O)C(=O)N[C@@H](CCC(=O)O)C(=O)NCCOCCOCCOCCC(=O)NCCOCCOCCOCCC(=O)NC(C)(C)C(=O)NC(C)(C)C(=O)NC(C)(C)C(=O)NC(C)(C)C(=O)N[C@@H](Cc5c[nH]c6ccccc56)C(=O)N[C@@H](Cc5c[nH]c6ccccc56)C(=O)N[C@@H](C)C(=O)N[C@@H](Cc5ccc(O)cc5)C(=O)N[C@@H](Cc5c[nH]c6ccccc56)C(=O)N5CCC[C@H]5C(=O)N5CCC[C@H]5C(=O)N[C@H](C(=O)N[C@@H](C)C(N)=O)C(C)C)CC[C@]4(C)[C@H]3CC[C@]12C [Compound 26, R = BEEOOUUUUWWAYWPPVA-CONH2] ({Pentanoyl(5-NH-cholesteryl)-βAla}-EE[PEG3][PEG3][Aib][Aib][Aib][Aib]WWAYWPPVA-NH2)
  Efficacy (% of max. 1): 123%
